Experimental data taken from the supplement of paper PMC3334620.
In all, about 33,000 sequences were measured (“E-score (-0.5 to 0.5)”: median about -0.011, highest 2% from about 0.28 on). The list shows a part of the results.

Target: T1, Gcr1 (UniProt P07261)
T1 sequence: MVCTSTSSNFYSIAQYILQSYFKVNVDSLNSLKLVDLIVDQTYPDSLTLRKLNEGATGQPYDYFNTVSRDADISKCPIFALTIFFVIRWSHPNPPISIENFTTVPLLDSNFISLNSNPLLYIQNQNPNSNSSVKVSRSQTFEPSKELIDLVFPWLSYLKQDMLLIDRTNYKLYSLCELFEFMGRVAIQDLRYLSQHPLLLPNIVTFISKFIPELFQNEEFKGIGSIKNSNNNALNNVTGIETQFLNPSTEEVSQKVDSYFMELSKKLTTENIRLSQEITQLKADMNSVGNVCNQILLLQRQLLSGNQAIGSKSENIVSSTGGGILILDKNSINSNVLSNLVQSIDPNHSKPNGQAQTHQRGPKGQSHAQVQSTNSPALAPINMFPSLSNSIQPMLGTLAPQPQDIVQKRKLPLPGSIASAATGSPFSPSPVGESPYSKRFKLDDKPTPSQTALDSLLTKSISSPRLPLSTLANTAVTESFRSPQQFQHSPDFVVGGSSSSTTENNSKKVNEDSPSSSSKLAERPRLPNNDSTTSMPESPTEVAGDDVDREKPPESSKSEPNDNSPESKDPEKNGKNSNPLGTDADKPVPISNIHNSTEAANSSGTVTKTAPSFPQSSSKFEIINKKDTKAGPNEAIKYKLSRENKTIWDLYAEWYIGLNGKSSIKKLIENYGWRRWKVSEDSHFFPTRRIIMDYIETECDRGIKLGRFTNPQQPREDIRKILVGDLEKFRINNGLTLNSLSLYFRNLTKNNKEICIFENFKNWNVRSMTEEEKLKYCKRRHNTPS
Assay: PBM E-score (8-mer binding enrichment) (E-score (-0.5 to 0.5)); higher = stronger / more preferred TF binding; most listed sequences are background and not binding sites
Settings: protein concentration: 100 nM; construct: GST-full length
Procedure, shortened: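 Universal all-10-mer Agilent arrays, double-stranded by primer extension on fresh or once-stripped slides, were probed with about 100-200 nM GST-tagged yeast transcription factors made by PURExpress. Fluorescent anti-GST detected bound protein, and masliner normalised the scans. E-scores from the Universal PBM Analysis Suite were given to each ungapped eight-base word pooled with its reverse complement.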

| Sequence | PBM E-score |
| --- | --- |
| TACTGGCA | 0.121 |
| CTTACGAA | 0.0781 |
| ATGCGACG | 0.0165 |
| AGTCATTC | -0.176 |
| AGGAACAC | 0.059 |
| AAAATTGT | -0.102 |
| CTATGCAG | 0.00154 |
| ACAAGATC | 0.0465 |
| AAGAGGAT | 0.0595 |
| CAAATATA | 0.144 |
| CAGGACGC | 0.412 |
| TGTGTCAA | -0.188 |
| CATATCGG | 0.0304 |
| AGTTCCCA | 0.22 |
| AGGGTCCG | 0.0344 |
| ACAGGTGA | -0.139 |
| CTTCTCCA | -0.00853 |
| CGCGATGC | 0.137 |
| CCGCGTTC | -0.213 |
| GACGATGA | -0.11 |
| AAAATCGG | 0.0872 |
| ACCTGTAT | 0.322 |

| Sequence | PBM E-score |
| --- | --- |
| GTCCTGGA | 0.0405 |
| GCCCGCGA | 0.0175 |
| CAGGGGGC | -0.125 |
| AGCGGTAG | 0.027 |
| ACAATCTC | -0.113 |
| AACTCACC | -0.0671 |
| CGTAGAAC | 0.0339 |
| ATAGAAGC | 0.315 |
| AGGATGTA | -0.0354 |
| ACTGGCCG | 0.0365 |
| GACGTTTA | 0.0575 |
| CTGTCTAC | -0.0405 |
| GAAAAATC | -0.0766 |
| GCAACGGA | -0.0561 |
| CAGTACCG | -0.225 |
| TAAGCAAA | -0.0549 |
| GTTTGAGA | 0.13 |
| AAACAAGG | 0.16 |
| AATACCCA | 0.153 |
| CGTACTGC | -0.359 |
| GGTATTAC | 0.121 |
| GGGACCGA | -0.0653 |

| Sequence | PBM E-score |
| --- | --- |
| AGTTCCAA | 0.192 |
| AATTGCAC | -0.142 |
| GTAAGACA | -0.0656 |
| TATTTAAA | 0.243 |
| AAGTGATG | 0.0629 |
| AGTGTTGA | 0.0776 |
| AGGGGCAA | -0.0326 |
| AGTCTAGG | 0.15 |
| ATCCATTC | 0.114 |
| AAAGCGAA | -0.0378 |
| CATTGGGG | -0.0755 |
| CAGGGTTC | 0.0778 |
| CACTCAGC | 0.14 |
| AGAAAAAA | 0.0389 |
| ATCCTTGG | 0.142 |
| CCATTTAA | 0.304 |
| AATTCGAG | 0.0234 |
| GCACCGAA | 0.143 |
| CAGGTCGA | -0.23 |
| ACGAAACC | -0.0164 |
| AAGACTGT | -0.262 |
| AAGTTGAG | 0.0769 |

| Sequence | PBM E-score |
| --- | --- |
| GGATTCGA | -0.0132 |
| AACTCGTC | -0.0513 |
| ACTTCTCG | -0.0046 |
| CACCCTCA | -0.098 |
| ATAAAGTA | 0.121 |
| AAAAGCTA | -0.0743 |
| TCCTTAAA | 0.188 |
| CTGCTCCC | -0.0369 |
| AGTACCCA | 0.0854 |
| CGGGGCTA | -0.145 |
| AAGTCTTG | -0.201 |
| CTTTACTC | -0.104 |
| ACGCCCGG | 0.00623 |
| GGGTTTTA | 0.0307 |
| AGCCCCGG | -0.0603 |
| GGCCTCAA | -0.064 |
| CCCGCGGC | -0.0884 |
| AAATCACG | 0.0802 |
| CCCTCAGC | -0.0815 |
| ATGTTACG | -0.0472 |
| ACTCGCAA | -0.0245 |
| CAGCCTCC | 0.0111 |

| Sequence | PBM E-score |
| --- | --- |
| GGGCGCGA | 0.187 |
| CTCCAAGC | -0.0749 |
| AGAGGAAG | 0.385 |
| CATACATG | 0.138 |
| AATCTCGG | 0.0556 |
| ATCCGCGC | -0.17 |
| TCCGCAGA | 0.0495 |
| AAACCTGG | -0.0106 |
| CACGAGCA | -0.175 |
| GATCAACA | -0.0228 |
| CGTGAGAC | 0.0202 |
| GACTTACC | -0.13 |
| CTCAGCGC | -0.0893 |
| AACAATTG | -0.0456 |
| GGGGGGTA | -0.184 |
| ACTCAAAC | -0.0659 |
| CAGATGAC | -0.0757 |
| ACAACAGT | 0.0426 |
| AACGGCAT | 0.0261 |
| ACGACCCC | -0.137 |
| CTACTAGC | 0.0837 |
